{
  "source": "PubChem BioAssay AID588591",
  "about": "(National Center for Advancing Translational Sciences (NCATS), 2011)",
  "note": "In all, about 390,000 compounds went through this assay and about 4,700 (1.2%) were called active. Inconclusive results, whose numbers are uncertain, are shown with a selection of clear calls. Calls follow the shape of the dose curve; as a rule, active = well fitted inhibition curve with a large enough effect; inconclusive = small, poorly fitted or top-dose-only effect, or another doubt; inactive = no such curve, though single readings can be large or run the other way. Potencies of inconclusive entries are doubtful fits and often do not repeat. Potency is read from the fitted curve at half-maximal effect; tags tell the direction and shape of the fitted curve.",
  "data": [
    {"molecular_target": "DNA polymerase eta (Homo sapiens) (UniProt Q9Y253)", "sequence (Q9Y253 whole entry, looked up)": "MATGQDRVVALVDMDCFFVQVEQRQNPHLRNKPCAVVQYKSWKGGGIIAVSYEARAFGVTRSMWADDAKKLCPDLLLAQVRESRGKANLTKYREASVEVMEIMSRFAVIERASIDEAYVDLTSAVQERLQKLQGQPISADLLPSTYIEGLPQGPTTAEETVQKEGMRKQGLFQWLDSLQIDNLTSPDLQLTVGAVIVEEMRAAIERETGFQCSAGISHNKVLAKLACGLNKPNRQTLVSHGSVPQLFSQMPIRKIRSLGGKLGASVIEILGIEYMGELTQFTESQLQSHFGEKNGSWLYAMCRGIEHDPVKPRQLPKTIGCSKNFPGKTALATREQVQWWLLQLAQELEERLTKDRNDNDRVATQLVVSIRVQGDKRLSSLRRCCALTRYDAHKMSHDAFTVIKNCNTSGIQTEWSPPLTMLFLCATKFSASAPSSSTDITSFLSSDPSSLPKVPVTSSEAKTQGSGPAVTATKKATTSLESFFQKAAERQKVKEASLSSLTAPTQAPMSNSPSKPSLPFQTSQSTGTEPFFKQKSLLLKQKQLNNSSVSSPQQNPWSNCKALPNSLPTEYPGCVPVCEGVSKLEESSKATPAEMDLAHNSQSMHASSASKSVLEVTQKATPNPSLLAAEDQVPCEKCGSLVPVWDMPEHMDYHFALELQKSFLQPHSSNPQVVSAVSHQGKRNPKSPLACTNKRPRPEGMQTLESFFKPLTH", "assay": "qHTS for Inhibitors of Polymerase Eta", "conditions": "recombinant Pol eta, fluorescent DNA replication assay; series mostly up to 114 µM", "method_in_brief": "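Pol eta (10 nM) was preincubated with compounds for 15 min at room temperature, after which fluorescent replication substrate (50 nM final) was added to start the reaction. Fluorescence was read kinetically at 0 and 10 min.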", "values": [
      {"smiles": "CC(=O)Nc1ccc(S(=O)(=O)NCC(=O)OCC(=O)NCc2ccco2)cc1", "Potency": "inconclusive: 28.2 µM [inhibitor, partial curve, poor fit]"},
      {"smiles": "CCc1nc(SCC(=O)Nc2ccc(N(C)C)cc2)c2ccccc2n1", "Potency": "inconclusive: 56.2 µM [inhibitor, partial curve, poor fit]"},
      {"smiles": "Cc1ccccc1NC1=NCC(c2ccc([N+](=O)[O-])cc2)S1", "note": "(stereo not given)", "Potency": "inconclusive: 79.4 µM [inhibitor, partial curve, poor fit]"},
      {"smiles": "O=C(CSc1nc2ccccc2c(=O)n1Cc1ccccc1)Nc1ccc(Br)cc1C(=O)O", "Potency": "active: 89.1 µM"},
      {"smiles": "CCc1nnc(NS(=O)(=O)c2ccc(N/C=C\\C(=O)c3cccc4ccccc34)cc2)s1", "Potency": "active: 44.7 µM"},
      {"smiles": "CCN(CC)c1ccc(N=Cc2c(C)[nH]c3ccccc23)cc1", "Potency": "inconclusive: 50.1 µM [inhibitor, partial curve, poor fit]"},
      {"smiles": "COC(=O)CSc1nc(N)c(C#N)c(-c2ccco2)c1C#N", "Potency": "inconclusive: 28.2 µM [inhibitor, partial curve, poor fit]"},
      {"smiles": "O=C(c1cccc(-n2cccc2)c1)N1CCN(S(=O)(=O)c2ccccc2)CC1", "Potency": "active: 8.91 µM"},
      {"smiles": "O=C(O)c1ccc(S(=O)(=O)/N=C2\\C=C(Nc3ccccc3F)C(=O)c3ccccc32)cc1", "Potency": "active: 8.91 µM"},
      {"smiles": "Cc1ccccc1S(=O)(=O)/N=C(/c1ccccc1)N1CCOCC1", "Potency": "inactive"},
      {"smiles": "N#CC(C#N)=C1C=CC=CN1/C(=C\\c1ccco1)C(=O)c1ccc(-c2ccccc2)cc1", "Potency": "inconclusive: 20 µM [inhibitor, partial curve, poor fit]"},
      {"smiles": "CC(SCC(=O)Nc1ccc(S(=O)(=O)N2CCCCC2)cc1)C(=O)O", "note": "(stereo not given)", "Potency": "inconclusive: 35.5 µM [inhibitor, single point]"},
      {"smiles": "CCc1ccc(-n2nc(C)c3c(C(=O)Nc4cc(OC)cc(OC)c4)cc(C)nc32)cc1", "Potency": "inconclusive: 56.2 µM [inhibitor, partial curve, poor fit]"},
      {"smiles": "S=c1[nH]nc(-c2cc(-c3ccccc3)n[nH]2)n1/N=C/c1c2ccccc2cc2ccccc12", "Potency": "inconclusive: 20 µM [inhibitor, full curve, poor fit]"},
      {"smiles": "Cc1nn(C(=O)c2ccco2)c(C)c1Sc1ccc([N+](=O)[O-])cc1", "Potency": "inconclusive: 17.8 µM [inhibitor, partial curve, poor fit]"},
      {"smiles": "CN1C(=O)C(C)(C)c2cc(S(=O)(=O)NCc3ccc(C(=O)Nc4ccc(Cl)cc4)cc3)ccc21", "Potency": "inactive"},
      {"smiles": "COC(=O)CCC(=O)OC1(C)C(=O)C2=CN(C3CCCC3)C(c3ccc(OC)cc3)=CC2=C(Br)C1=O", "note": "(stereo not given)", "Potency": "inconclusive: 89.1 µM [inhibitor, single point]"},
      {"smiles": "Cc1ccc(S(=O)(=O)/N=C2\\C=C(NS(=O)(=O)c3ccccc3)C(=O)c3ccccc32)cc1", "Potency": "inconclusive: 56.2 µM [inhibitor, partial curve, poor fit]"},
      {"smiles": "CCN(CC)S(=O)(=O)c1nnc(NC(=O)c2ccco2)s1", "Potency": "inconclusive: 50.1 µM [inhibitor, partial curve]"},
      {"smiles": "O=C(Oc1ccc2c(c1)O/C(=C\\c1ccncc1)C2=O)c1ccccc1", "Potency": "inconclusive: 28.2 µM [inhibitor, single point]"},
      {"smiles": "CCCn1cnnc1CNC(=O)C1CCC(=O)N(CCc2ccc(OC)cc2)C1", "note": "(stereo not given)", "Potency": "inconclusive: 89.1 µM [inhibitor, partial curve, poor fit]"},
      {"smiles": "COc1cc(C2c3c([nH]c(=O)[nH]c3=O)Nc3ccc4ccccc4c32)cc(OC)c1OC", "note": "(stereo not given)", "Potency": "active: 79.4 µM"},
      {"smiles": "Cc1cc(Cl)ccc1NC(=S)NCc1ccccc1Cl", "Potency": "inconclusive: 20 µM [inhibitor, full curve, poor fit]"},
      {"smiles": "Cc1c(C(=O)OC2CCC(C)CC2)[nH]c2c1C(=O)CC(c1ccc(F)cc1)C2", "note": "(stereo not given)", "Potency": "inactive"},
      {"smiles": "Cc1ccc(CNC(=O)CCNS(=O)(=O)c2ccc3c(c2)CCCC(=O)N3)cc1", "Potency": "inactive"},
      {"smiles": "Cc1ccc(N(C)S(=O)(=O)c2cccc(C(=O)OCC(=O)N(C)Cc3ccccc3)c2)cc1", "Potency": "inconclusive: 79.4 µM [inhibitor, partial curve, poor fit]"},
      {"smiles": "C[C@H](CO)N1C[C@H](C)[C@@H](CN(C)C(=O)NC2CCCCC2)Oc2c(NC(=O)Nc3ccc4c(c3)OCO4)cccc2C1=O", "Potency": "inactive"},
      {"smiles": "Cn1c2ccccc2c2cc(/C=N/NC(=O)c3cc(O)cc(O)c3)ccc21", "Potency": "active: 22.4 µM"},
      {"smiles": "O=C(O)CN1C(=O)SC(Nc2ccccc2C(=O)O)C1=O", "note": "(stereo not given)", "Potency": "inconclusive: 28.2 µM [inhibitor, partial curve, poor fit]"},
      {"smiles": "CCOC(=O)c1c(NC(=O)c2ccc(-n3cnnn3)cc2)sc2c1CCCC2", "Potency": "inconclusive: 11.2 µM [inhibitor, partial curve, poor fit]"},
      {"smiles": "COc1ccc(Cl)cc1NC(=O)COC(=O)/C=C/c1c(C)nn(C2CCS(=O)(=O)C2)c1Cl", "note": "(stereo not given)", "Potency": "inconclusive: 89.1 µM [inhibitor, single point]"},
      {"smiles": "Brc1ccc(-c2nn3c(-c4ccccn4)nnc3s2)o1", "Potency": "active: 79.4 µM"},
      {"smiles": "O=C(CCc1nnc(C2CCCCC2)o1)N1CCN(Cc2ccccc2)CC1", "Potency": "inconclusive: 15.8 µM [inhibitor, full curve, poor fit]"},
      {"smiles": "CCOc1ccc(CNC(=O)C2CCCN(c3nn4cc(-c5ccc(OC)cc5)nc4s3)C2)cc1", "note": "(stereo not given)", "Potency": "inconclusive: 79.4 µM [inhibitor, single point]"},
      {"smiles": "O=C(N/N=C/c1cc(Cl)c(O)c(Cl)c1)c1cc2c(ccc3ccccc32)o1", "Potency": "active: 22.4 µM"},
      {"smiles": "O=C(c1cc(Br)c(Br)s1)N1CCOCC1", "Potency": "inactive"},
      {"smiles": "O=[N+]([O-])c1cc(S(=O)(=O)N2CCCC2)ccc1N/N=C/c1ccccn1", "Potency": "inconclusive: 25.1 µM [inhibitor, partial curve]"},
      {"smiles": "Cc1ccc(S(=O)(=O)N(CC(=O)Nc2cccnc2)c2cc(Cl)ccc2C)cc1", "Potency": "inconclusive: 22.4 µM [inhibitor, partial curve, poor fit]"},
      {"smiles": "O=C(Nc1ccc(S(=O)(=O)Nc2nccs2)cc1)c1ccc(F)c(S(=O)(=O)N2CCOCC2)c1", "Potency": "inconclusive: 89.1 µM [inhibitor, partial curve, poor fit]"},
      {"smiles": "Cc1cc(C)nc(SCC(=O)c2ccc(O)c(O)c2)n1", "Potency": "active: 15.8 µM"},
      {"smiles": "COc1ccc(CC(=O)OCC(=O)Nc2ncc(Cl)c(C)c2Cl)cc1", "Potency": "active: 20 µM"},
      {"smiles": "COc1ccc(C)cc1NC(=O)CSc1nc(=O)n(Cc2ccco2)c2c1CCC2", "Potency": "inconclusive: 89.1 µM [inhibitor, single point]"},
      {"smiles": "c1cc2ccc3ccc(-n4cnnn4)c4ccc(c1)c2c34", "Potency": "inconclusive: 17.8 µM [inhibitor, partial curve]"},
      {"smiles": "Cc1cc(/C=c2\\sc3nc4ccccc4n3c2=O)c(C)n1-c1ccc(C(=O)O)cc1", "Potency": "active: 22.4 µM"},
      {"smiles": "CCCCc1ccc(NC(=O)Cn2cnc3c(oc4ccccc43)c2=O)cc1", "Potency": "inactive"},
      {"smiles": "Cc1ccc(CCNC(=O)C2CC(=O)N(CCc3ccc(C)cc3)C2)cc1", "note": "(stereo not given)", "Potency": "inactive"},
      {"smiles": "COC(=O)Cc1[nH]nc2c1C(c1cc(OC)c(OC)c(OC)c1)C(C#N)=C(N)O2", "note": "(stereo not given)", "Potency": "inactive"},
      {"smiles": "CC(C)n1cc(/C=N/NC(=O)COc2cccc3cccnc23)c2ccccc21", "Potency": "inconclusive: 28.2 µM [inhibitor, partial curve]"},
      {"smiles": "Cc1c(C(=O)OCc2ccccc2)[nH]c2c1C(=O)CC(c1ccco1)C2", "note": "(stereo not given)", "Potency": "active: 22.4 µM"},
      {"smiles": "CC[C@@H](C)[C@@H](C(=O)N1CCN(C(=O)OC(C)(C)C)CC1)n1cc(CCCCNC(=O)OC(C)(C)C)nn1", "Potency": "inconclusive: 89.1 µM [inhibitor, partial curve, poor fit]"},
      {"smiles": "COc1ccc(/C=C2/SC(c3ccc(C)cc3)=NC2=O)cc1OC", "Potency": "inconclusive: 20 µM [inhibitor, full curve, poor fit]"},
      {"smiles": "COc1ccc(-c2csc(/N=C/N(C)C)n2)cc1OC", "Potency": "inconclusive: 56.2 µM [inhibitor, partial curve, poor fit]"},
      {"smiles": "O=C(O)c1ccc2c3c(cccc13)C(=O)N(c1ccccc1)C2=O", "Potency": "active: 17.8 µM"},
      {"smiles": "O=C(O)c1cccc(NS(=O)(=O)c2ccc(NC(=O)c3ccco3)cc2)c1", "Potency": "active: 28.2 µM"},
      {"smiles": "Cc1ccc(-c2nc(S(=O)(=O)c3ccc(C)cc3)c(SCC(=O)NCC3CCCO3)o2)cc1", "note": "(stereo not given)", "Potency": "inconclusive: 2.51 µM [inhibitor, full curve, poor fit]"},
      {"smiles": "CCOC(=O)c1c(C)oc(=O)c(CC)c1O", "Potency": "inactive"},
      {"smiles": "COc1cccc(N2CC(C(=O)Nc3nnc(SCc4cccnc4)s3)CC2=O)c1", "note": "(stereo not given)", "Potency": "inconclusive: 35.5 µM [inhibitor, partial curve]"},
      {"smiles": "COC(=O)/C=C1\\SC(=NC(=O)c2ccc(-c3ccccc3)cc2)NC1=O", "Potency": "active: 50.1 µM"},
      {"smiles": "CC1=NN(Cc2ccccc2)C(=O)C1C(c1ccc(Cl)cc1)C(C#N)C#N", "note": "(stereo not given)", "Potency": "inconclusive: 15.8 µM [inhibitor, full curve, poor fit]"},
      {"smiles": "Oc1c(Br)cc(Br)cc1C=NCc1ccc(F)cc1", "Potency": "inconclusive: 56.2 µM [inhibitor, partial curve, poor fit]"},
      {"smiles": "O=C1ON=C(c2ccc(Cl)cc2)/C1=C/c1ccc(O)cc1", "Potency": "inconclusive: 89.1 µM [inhibitor, partial curve]"},
      {"smiles": "O=C(O)c1ccccc1NS(=O)(=O)c1cccc(C(F)(F)F)c1", "Potency": "inactive"},
      {"smiles": "COc1cccc(-c2cc3c(-n4cccc4)ncnc3o2)c1", "Potency": "inconclusive: 15.8 µM [inhibitor, single point]"},
      {"smiles": "COc1ccc(-c2cc(=O)[nH]c(=O)[nH]2)cc1", "Potency": "inconclusive: 89.1 µM [inhibitor, single point]"},
      {"smiles": "CC(C)NC(=O)COC(=O)/C=C/c1ccco1", "Potency": "inconclusive: 35.5 µM [inhibitor, partial curve, poor fit]"}
    ]}
  ]
}
